Data: PubChem BioAssay AID1030 (National Center for Advancing Translational Sciences (NCATS), 2008)
Hit rate of the full screen: of about 220,000 compounds, about 16,000 (7.3%) were called active. Inconclusive means that the source gave no clear call. Such entries were picked first, then a sample of the others. Calls come from the whole dose curve; as a rule, active = well fitted inhibition curve with a large enough effect (not every such curve was filed as active); inconclusive = small, poorly fitted or top-dose-only effect, or another doubt; inactive = no such curve, though single readings can be large or run the other way. No potency is given beside an inconclusive call; the fits are too rough.

biological target: Aldehyde dehydrogenase 1A1 (Homo sapiens) (UniProt P00352); experiment: qHTS Assay for Inhibitors of Aldehyde Dehydrogenase 1 (ALDH1A1); settings: Purified ALDH1A1, NADH fluorescence, propionaldehyde substrate; series mostly up to 75.3 µM;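 for activity, negative = inhibition: plate controls were no enzyme wells and a reference inhibitor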
Sequence of UniProt P00352 (P00352 whole entry, looked up): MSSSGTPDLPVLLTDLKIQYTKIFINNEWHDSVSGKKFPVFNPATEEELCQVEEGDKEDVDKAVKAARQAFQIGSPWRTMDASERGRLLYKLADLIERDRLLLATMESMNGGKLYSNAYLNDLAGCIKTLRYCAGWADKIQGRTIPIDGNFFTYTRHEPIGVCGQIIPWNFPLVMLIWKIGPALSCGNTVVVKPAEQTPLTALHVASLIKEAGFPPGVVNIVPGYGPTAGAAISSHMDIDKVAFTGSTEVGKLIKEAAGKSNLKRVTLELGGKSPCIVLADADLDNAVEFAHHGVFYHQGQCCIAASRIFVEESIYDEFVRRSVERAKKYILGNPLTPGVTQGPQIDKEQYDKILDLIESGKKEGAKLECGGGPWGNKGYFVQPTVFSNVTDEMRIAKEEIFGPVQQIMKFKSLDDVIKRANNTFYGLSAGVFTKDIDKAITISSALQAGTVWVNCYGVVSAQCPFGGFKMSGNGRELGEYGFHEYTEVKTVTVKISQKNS
Potency is the fitted concentration of half-maximal effect; tags give direction and shape of the fitted curve.

**Q.** Cc1cnc(CNc2ccnc(-c3ccccc3C(F)(F)F)n2)cn1 was tested. Which Potency did it give?
**A.** inconclusive [inhibitor, partial curve, poor fit]

**Q.** C=CCn1cc(-c2ccc(Cl)cc2)cc(C#N)c1=O was tested. Which Potency did it give?
**A.** inconclusive [inhibitor, single point]

**Q.** For S=c1[nH]nc(-c2cc(-c3ccccc3)n[nH]2)n1/N=C/C(Br)=C/c1ccccc1, which Potency is on record?
**A.** inactive

**Q.** Which activity, negative = inhibition does the source give for CO[C@@H]1COC(=O)[C@@H](CCSC)NC(=O)C/C=C\[C@@H](C)COC(=O)CCC[C@H]1C here?
**A.** inactive: 4.14% [at 13.5 µM]

**Q.** Cn1c(O)c(N=N/C(=N/c2ccccn2)c2ccccn2)c2cc(Br)ccc21 was tested. Which Potency did it give?
**A.** active: 14.1 µM

**Q.** How did the Potency turn out when CCOC(=O)c1ccc(NC(=O)NC2CC3CCC(C2)N3Cc2nnnn2Cc2ccco2)cc1 (centres undefined) was run?
**A.** active: 12.6 µM

**Q.** Which Potency does the source give for CN(C(=S)NC(=O)Cc1ccccc1)c1ccccc1 here?
**A.** inconclusive [inhibitor, single point]

**Q.** COc1ccc(C(=O)COC(=O)CN2CC(=O)Oc3ccccc32)cc1Br was tested. Which Potency did it give?
**A.** inconclusive [inhibitor, single point]

**Q.** Which Potency does the source give for CCCN1CNc2c(c(=O)[nH]c(=S)n2CCc2ccc(OC)c(OC)c2)C1 here?
**A.** inactive

**Q.** For COc1ccc(-c2nsc3c(N4CCN(S(=O)(=O)c5ccccc5F)CC4)ncnc23)cc1, which Potency is on record?
**A.** inconclusive [inhibitor, single point]

**Q.** For Cc1csc(N)n1, which Potency is on record?
**A.** inactive

**Q.** For COc1ccc(NC(=O)C(=O)NCCN2CCN(C(=O)C(c3ccccc3)c3ccccc3)CC2)cc1, which Potency is on record?
**A.** inconclusive [inhibitor, partial curve]

**Q.** With Cc1csc(SCCn2c(N3CCN(c4ccccc4)CC3)nc3c2c(=O)[nH]c(=O)n3C)n1 as the compound, how does the Potency read?
**A.** inconclusive [inhibitor, partial curve]

**Q.** With Cc1cnc(CNc2ncncc2-c2cccc(NS(C)(=O)=O)c2)cn1 as the compound, how does the Potency read?
**A.** inactive

**Q.** Which Potency does the source give for O=C(/C=C/c1ccccc1)N1CCN(c2c(Cl)cccc2[N+](=O)[O-])CC1 here?
**A.** inconclusive [inhibitor, single point]

**Q.** With O=C(CO/N=C/c1ccc(OC(F)F)cc1)N1CCc2ccccc21 as the compound, how does the Potency read?
**A.** inconclusive [inhibitor, single point]

**Q.** With Cc1cc(Cl)cc(Br)c1OCCCN1C(=O)NC(C)(C)C1=O as the compound, how does the Potency read?
**A.** inconclusive [inhibitor, partial curve]

**Q.** With Cc1nc(N2CCOCC2)c2nc(-c3ccccc3)n(CCCN3CCOCC3)c2n1 as the compound, how does the Potency read?
**A.** inconclusive [inhibitor, partial curve]

**Q.** With C/C(N)=C(/C#N)C(=O)CSc1nnc(Nc2ccccc2C)s1 as the compound, how does the Potency read?
**A.** inconclusive [inhibitor, single point]

**Q.** O=C(c1nc2n(n1)C(c1ccc(Cl)cc1)C=C(c1ccccc1)N2)N1CCOCC1 (centres undefined) was tested. Which Potency did it give?
**A.** inconclusive [inhibitor, single point]

**Q.** How did the Potency turn out when COc1ccc(CCNC(=O)c2cc3ccccn3n2)c(OC)c1OC was run?
**A.** active: 22.4 µM

**Q.** How did the Potency turn out when CCCC(C(=O)NC1CCCC1)N(Cc1cccs1)C(=O)c1snc(C(N)=O)c1N (centres undefined) was run?
**A.** inconclusive [inhibitor, single point]

**Q.** N#Cc1ccccc1COC(=O)c1cccnc1N was tested. Which Potency did it give?
**A.** inconclusive [inhibitor, partial curve]

**Q.** How did the Potency turn out when COc1ccc(C2CC(c3ccccc3)=NN2C(=O)COC(=O)C2(C)CC2(Cl)Cl)cc1 (centres undefined) was run?
**A.** inconclusive [inhibitor, single point]

**Q.** Which Potency does the source give for CO/N=C(\Cn1ncc(NC2CCCCC2)c(Br)c1=O)c1ccc(Cl)cc1 here?
**A.** inactive

**Q.** With N#C/C(=C\c1cc(Cl)cc(Cl)c1O)C(=O)NC1CCCCC1 as the compound, how does the Potency read?
**A.** active: 31.6 µM

**Q.** Cc1ccc(C(=O)N2CCN(c3ccccn3)CC2)cc1[N+](=O)[O-] was tested. Which Potency did it give?
**A.** inconclusive [inhibitor, single point]

**Q.** O=c1c(-c2cccs2)nc2cnc(Oc3ccccc3)nc2n1Cc1cccs1 was tested. Which Potency did it give?
**A.** inconclusive [inhibitor, full curve]

**Q.** How did the Potency turn out when Cc1[nH]c2ccccc2c1N=Nc1c(C)n(C)n(-c2ccccc2)c1=O was run?
**A.** inconclusive [inhibitor, single point]

**Q.** COc1cccc(NC(=O)CSc2nc3ccccc3c(=O)n2Cc2cccs2)c1 was tested. Which Potency did it give?
**A.** inconclusive [inhibitor, single point]

**Q.** With COc1ccc(NC(=O)CSc2nnc(Cc3cccn3C)n2-c2ccc(F)cc2)cc1 as the compound, how does the Potency read?
**A.** inconclusive [inhibitor, partial curve, poor fit]

**Q.** CC(C)(C)c1ccc(CN2C(=O)CSC2=O)cc1 was tested. Which Potency did it give?
**A.** inactive

**Q.** Which Potency does the source give for COC(=O)CSc1nnc(-c2ccccc2O)n1-c1ccc(C)cc1 here?
**A.** inconclusive [inhibitor, single point]

**Q.** How did the Potency turn out when COc1ccc(-c2[nH]ncc2CN(Cc2nccn2C)C(C)C)c(F)c1 was run?
**A.** active: 22.4 µM

**Q.** Which Potency does the source give for Cc1cccc(NC(=S)NCc2ccco2)n1 here?
**A.** inconclusive [inhibitor, single point]

**Q.** Which Potency does the source give for COc1ccc(/C=C2\SC(=NCc3ccccc3)NC2=O)cc1 here?
**A.** inactive

**Q.** For CCN(CC(=O)NC1CCS(=O)(=O)C1)c1nc(-c2cccnc2)nc2ccccc12 (centres undefined), which Potency is on record?
**A.** inconclusive [inhibitor, partial curve]

**Q.** How did the Potency turn out when CCn1ncc(Br)c1C(=O)Nc1ccc(C(=O)OC(C)C)cc1 was run?
**A.** inconclusive [inhibitor, single point]

**Q.** For COc1ccc(-c2[nH]ncc2-c2ccc3c(c2)OCCO3)c(O)c1, which Potency is on record?
**A.** inconclusive [inhibitor, single point]

**Q.** For O=C(c1ccc(=O)n(Cc2ccccc2)n1)N1CCN(C/C=C/c2ccccc2)CC1, which Potency is on record?
**A.** inconclusive [inhibitor, single point]

**Q.** Which Potency does the source give for CCCCOc1ncnc2c1[nH]c1ccccc12 here?
**A.** inconclusive [inhibitor, single point]

**Q.** For COc1cc(C(=O)Nc2cccc(-c3nc4cc(C)ccc4o3)c2)cc(OC)c1OC, which Potency is on record?
**A.** inactive

**Q.** Cc1nc2sc(-c3ccccc3)cc2c(=O)[nH]1 was tested. Which Potency did it give?
**A.** inconclusive [inhibitor, single point]

**Q.** Which Potency does the source give for COc1ccccc1C1C(C#N)=C(N)Oc2cc(C)n(Cc3ccccn3)c(=O)c21 (centres undefined) here?
**A.** inconclusive [inhibitor, partial curve]
